# Source: the supplement of paper PMC8728848
# The other results are listed elsewhere or left out.
# B1: Mincle (Homo sapiens), Q9ULY5 (protein)
# chain: MNSSKSSETQCTERGCFSSQMFLWTVAGIPILFLSACFITRCVVTFRIFQTCDEKKFQLPENFTELSCYNYGSGSVKNCCPLNWEYFQSSCYFFSTDTISWALSLKNCSAMGAHLVVINSQEEQEFLSYKKPKMREFFIGLSDQVVEGQWQWVDGTPLTKSLSFWDVGEPNNIATLEDCATMRDSSNPRQNWNDVTCFLNYFRICEMVGINPLNKGKSL
# Key:
# Experiment in all cases: glycan array binding signal (z-score within array); higher = stronger binding
# Conditions in all cases: glycan notation: IUPAC condensed, linker removed
# Gal3S(b1-4)Glc6S = target: Gal3S(b1-4)Glc6S
# Procedure, shortened: (§1)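 Glycan array binding is given as a within-array Z-score, which can be read as non-binding when negative. The arrays, 3228 of them, came from the Consortium for Functional Glycomics database and were retained only where the protein sequence was available. Z-scores were averaged across arrays of the same protein sequence at different concentrations or buffers and across linkers.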
# Gal3S(b1-4)GlcNAc = target: Gal3S(b1-4)GlcNAc
# Procedure, shortened: as §1
# Gal3S(b1-4)GlcNAc6S = target: Gal3S(b1-4)GlcNAc6S
# Procedure, shortened: as §1
# [1] = target: Gal3S(b1-4)[Fuc(a1-3)]Glc
# Procedure, shortened: as §1
# [2] = target: Gal3S(b1-4)[Fuc(a1-3)]Glc6S
# Procedure, shortened: as §1
# Gal3S4S(b1-4)GlcNAc = target: Gal3S4S(b1-4)GlcNAc
# Procedure, shortened: as §1
# Gal3S6S(b1-4)GlcNAc = target: Gal3S6S(b1-4)GlcNAc
# Procedure, shortened: as §1
# Gal3S6S(b1-4)GlcNAc6S = target: Gal3S6S(b1-4)GlcNAc6S
# Procedure, shortened: as §1
# Gal4S(b1-4)GlcNAc = target: Gal4S(b1-4)GlcNAc
# Procedure, shortened: as §1
# Gal4S6S(b1-4)GlcNAc = target: Gal4S6S(b1-4)GlcNAc
# Procedure, shortened: as §1
# Gal6S(b1-4)Glc = target: Gal6S(b1-4)Glc
# Procedure, shortened: as §1
# Gal6S(b1-4)Glc6S = target: Gal6S(b1-4)Glc6S
# Procedure, shortened: as §1
# Gal6S(b1-4)GlcNAc = target: Gal6S(b1-4)GlcNAc
# Procedure, shortened: as §1
# Gal6S(b1-4)GlcNAc6S = target: Gal6S(b1-4)GlcNAc6S
# Procedure, shortened: as §1
# GalNAc(a1-3)Gal = target: GalNAc(a1-3)Gal
# Procedure, shortened: as §1
# GalNAc(a1-3)GalNAc = target: GalNAc(a1-3)GalNAc
# Procedure, shortened: as §1
# [3] = target: GalNAc(a1-3)GalNAc(a1-3)Gal(a1-4)Gal(b1-4)GlcNAc
# Procedure, shortened: as §1
# GalNAc(b1-3)Gal = target: GalNAc(b1-3)Gal
# Procedure, shortened: as §1
# [4] = target: GalNAc(b1-3)Gal(a1-4)Gal(b1-4)GlcNAc
# Procedure, shortened: as §1
# [5] = target: GalNAc(b1-3)Gal(a1-4)Gal(b1-4)GlcNAc(b1-3)Gal(b1-4)Glc
# Procedure, shortened: as §1
# [6] = target: GalNAc(b1-3)Gal(a1-6)Gal(b1-4)Glc
# Procedure, shortened: as §1
# GalNAc(b1-3)GalNAc = target: GalNAc(b1-3)GalNAc
# Procedure, shortened: as §1
# GalNAc(b1-4)GlcNAc = target: GalNAc(b1-4)GlcNAc
# Procedure, shortened: as §1
# [7] = target: GalNAc(b1-4)GlcNAc(b1-2)Man(a1-3)[GalNAc(b1-4)GlcNAc(b1-2)Man(a1-6)]Man(b1-4)GlcNAc(b1-4)GlcNAc
# Procedure, shortened: as §1
# Glc(a1-4)Glc = target: Glc(a1-4)Glc
# Procedure, shortened: as §1
# Glc(a1-6)Glc(a1-6)Glc = target: Glc(a1-6)Glc(a1-6)Glc
# Procedure, shortened: as §1
# Glc(b1-4)Glc = target: Glc(b1-4)Glc
# Procedure, shortened: as §1
# Glc(b1-6)Glc = target: Glc(b1-6)Glc
# Procedure, shortened: as §1
# GlcA(b1-3)Gal = target: GlcA(b1-3)Gal
# Procedure, shortened: as §1
# GlcA(b1-3)GlcNAc = target: GlcA(b1-3)GlcNAc
# Procedure, shortened: as §1
# GlcA(b1-6)Gal = target: GlcA(b1-6)Gal
# Procedure, shortened: as §1
# [8] = target: GlcNAc(a1-3)Gal(b1-4)GlcNAc
# Procedure, shortened: as §1
# [9] = target: GlcNAc(a1-4)Gal(b1-3)GlcNAc
# Procedure, shortened: as §1
# [10] = target: GlcNAc(a1-4)Gal(b1-4)GalNAc
# Procedure, shortened: as §1
# [11] = target: GlcNAc(a1-4)Gal(b1-4)GlcNAc
# Procedure, shortened: as §1
# [12] = target: GlcNAc(a1-4)Gal(b1-4)GlcNAc(b1-3)Gal(b1-4)Glc
# Procedure, shortened: as §1
# [13] = target: GlcNAc(a1-4)Gal(b1-4)GlcNAc(b1-3)Gal(b1-4)GlcNAc
# Procedure, shortened: as §1
# [14] = target: GlcNAc(a1-4)Gal(b1-4)GlcNAc(b1-3)Gal(b1-4)GlcNAc(b1-3)Gal(b1-4)GlcNAc
# Procedure, shortened: as §1
# [15] = target: GlcNAc(a1-4)Gal(b1-4)GlcNAc(b1-3)Gal(b1-4)[Fuc(a1-3)]GlcNAc(b1-3)Gal(b1-4)[Fuc(a1-3)]GlcNAc
# Procedure, shortened: as §1
# [16] = target: GlcNAc(a1-6)Gal(b1-4)GlcNAc
# Procedure, shortened: as §1
# [17] = target: GlcNAc(b1-2)Gal(b1-3)GalNAc
# Procedure, shortened: as §1
# [18] = target: GlcNAc(b1-2)Man(a1-3)[GlcNAc(b1-2)Man(a1-6)]Man(b1-4)GlcNAc(b1-4)GlcNAc
# Procedure, shortened: as §1
# [19] = target: GlcNAc(b1-2)Man(a1-3)[GlcNAc(b1-2)Man(a1-6)]Man(b1-4)GlcNAc(b1-4)[Fuc(a1-6)]GlcNAc
# Procedure, shortened: as §1
# [20] = target: GlcNAc(b1-2)[GlcNAc(b1-4)]Man(a1-3)[GlcNAc(b1-2)Man(a1-6)]Man(b1-4)GlcNAc(b1-4)GlcNAc
# Procedure, shortened: as §1
# GlcNAc(b1-3)Gal = target: GlcNAc(b1-3)Gal
# Procedure, shortened: as §1
binder,measurement,setting,value
B1,glycan array binding signal (z-score),Gal3S(b1-4)Glc6S,0.377
same,glycan array binding signal (z-score),Gal3S(b1-4)GlcNAc,0.208
same,glycan array binding signal (z-score),Gal3S(b1-4)GlcNAc6S,0.051
same,glycan array binding signal (z-score),[1],-0.146
same,glycan array binding signal (z-score),[2],0.358
same,glycan array binding signal (z-score),Gal3S4S(b1-4)GlcNAc,0.794
same,glycan array binding signal (z-score),Gal3S6S(b1-4)GlcNAc,0.034
same,glycan array binding signal (z-score),Gal3S6S(b1-4)GlcNAc6S,1.38
same,glycan array binding signal (z-score),Gal4S(b1-4)GlcNAc,0.598
same,glycan array binding signal (z-score),Gal4S6S(b1-4)GlcNAc,0.101
same,glycan array binding signal (z-score),Gal6S(b1-4)Glc,0.256
same,glycan array binding signal (z-score),Gal6S(b1-4)Glc6S,-0.08
same,glycan array binding signal (z-score),Gal6S(b1-4)GlcNAc,0.205
same,glycan array binding signal (z-score),Gal6S(b1-4)GlcNAc6S,0.133
same,glycan array binding signal (z-score),GalNAc(a1-3)Gal,-0.323
same,glycan array binding signal (z-score),GalNAc(a1-3)GalNAc,-0.305
same,glycan array binding signal (z-score),[3],-0.357
same,glycan array binding signal (z-score),GalNAc(b1-3)Gal,-0.283
same,glycan array binding signal (z-score),[4],-0.512
same,glycan array binding signal (z-score),[5],-0.444
same,glycan array binding signal (z-score),[6],-0.249
same,glycan array binding signal (z-score),GalNAc(b1-3)GalNAc,-0.566
same,glycan array binding signal (z-score),GalNAc(b1-4)GlcNAc,-0.353
same,glycan array binding signal (z-score),[7],-0.089
same,glycan array binding signal (z-score),Glc(a1-4)Glc,-0.235
same,glycan array binding signal (z-score),Glc(a1-6)Glc(a1-6)Glc,-0.482
same,glycan array binding signal (z-score),Glc(b1-4)Glc,-0.501
same,glycan array binding signal (z-score),Glc(b1-6)Glc,-0.38
same,glycan array binding signal (z-score),GlcA(b1-3)Gal,-0.432
same,glycan array binding signal (z-score),GlcA(b1-3)GlcNAc,-0.377
same,glycan array binding signal (z-score),GlcA(b1-6)Gal,-0.485
same,glycan array binding signal (z-score),[8],-0.389
same,glycan array binding signal (z-score),[9],-0.019
same,glycan array binding signal (z-score),[10],-0.638
same,glycan array binding signal (z-score),[11],-0.088
same,glycan array binding signal (z-score),[12],-0.295
same,glycan array binding signal (z-score),[13],-0.34
same,glycan array binding signal (z-score),[14],0.955
same,glycan array binding signal (z-score),[15],1.44
same,glycan array binding signal (z-score),[16],-0.411
same,glycan array binding signal (z-score),[17],-0.485
same,glycan array binding signal (z-score),[18],1.47
same,glycan array binding signal (z-score),[19],0.845
same,glycan array binding signal (z-score),[20],-0.194
same,glycan array binding signal (z-score),GlcNAc(b1-3)Gal,0.183
